A collection of fitness landscapes (doi:10.1126/science.1257360)
This is one part of the list.

B1: PhoQ; a variant is named by its letters at X, in order, P23837 (parent)
chain: MKKLLRLFFPLSLRVRFLLATAAVVLVLSLAYGMVALIGYSVSFDKTTFRLLRGESNLFYTLAKWENNKLHVELPENIDKQSPTMTLIYDENGQLLWAQRDVPWLMKMIQPDWLKSNGFHEIEADVNDTSLLLSGDHSIQQQLQEVREDDDDAEMTHSVAVNVYPATSRMPKLTIVVVDTIPVELKSSYMVWSWFIYVLSANLLLVIPLLWVAAWWSLRPIEALAKEVRELEEHNRELLNPATTRELTSLVRNLNRLLKSERERYDKYRTTLTDLTHSLKTPLXXLQXXLRSLRSEKMSVSDAEPVMLEQISRISQQIGYYLHRASMRGGTLLSRELHPVAPLLDNLTSALNKVYQRKGVNISLDISPEISFVGEQNDFVEVMGNVLDNACKYCLEFVEISARQTDEHLYIVVEDDGPGIPLSKREVIFDRGQRVDTLRPGQGVGLAVAREITEQYEGKIVAGESMLGGARMEVIFGRQHSAPKDE

Variants of: B1
Assay: enrichment ratio after two sorts for PhoP signalling (ratio (wild type AVST 3.29)); higher = more functional
Conditions: with PhoP (E. coli)

Variant | enrichment ratio
LEYK | ≤ 0.25
KCGI | ≤ 0.25
EDNY | ≤ 0.25
ENPD | ≤ 0.25
AWIG | ≤ 0.25
QMFY | ≤ 0.25
ACTW | 9.88
PQRI | ≤ 0.25
EDFE | ≤ 0.25
HHWP | ≤ 0.25
HRWM | ≤ 0.25
YWTW | ≤ 0.25
KNQI | ≤ 0.25
MVAD | ≤ 0.25
ITMD | ≤ 0.25
RYMY | ≤ 0.25
TCWQ | 8.73
EGGC | ≤ 0.25
LLQA | ≤ 0.25
YTPG | ≤ 0.25
MMTQ | ≤ 0.25
EHCA | ≤ 0.25
ATCS | 9.62
GHYP | ≤ 0.25
MVEW | ≤ 0.25
MYFK | ≤ 0.25

Variant | enrichment ratio
HRRV | ≤ 0.25
HEFM | 1.96
YNFC | ≤ 0.25
EGST | ≤ 0.25
DQNH | ≤ 0.25
PFPH | ≤ 0.25
YKHP | ≤ 0.25
HHGY | ≤ 0.25
NEIT | ≤ 0.25
PEAK | ≤ 0.25
FAWP | ≤ 0.25
PMNY | ≤ 0.25
KMFP | ≤ 0.25
QLGL | 1.09
NTML | ≤ 0.25
TRYK | ≤ 0.25
MNHF | 4.26
SGMS | 6.87
KPFS | ≤ 0.25
GLLF | 4.76
GNSA | 2.7
PQNL | ≤ 0.25
EANT | ≤ 0.25
IGRH | ≤ 0.25
LYTM | ≤ 0.25
WRRW | ≤ 0.25

Variant | enrichment ratio
LGWE | ≤ 0.25
GLEH | ≤ 0.25
TKDC | ≤ 0.25
QVFP | ≤ 0.25
APVR | ≤ 0.25
HPTH | ≤ 0.25
ISPP | ≤ 0.25
QSRS | ≤ 0.25
SERF | ≤ 0.25
KAER | ≤ 0.25
TWPV | ≤ 0.25
QKLA | ≤ 0.25
REEQ | ≤ 0.25
VKVM | ≤ 0.25
LDVP | ≤ 0.25
IMML | ≤ 0.25
QFPN | ≤ 0.25
HNSF | ≤ 0.25
TEQY | 12.5
ATLK | 17
AHVR | ≤ 0.25
EALP | 0.25
PIPQ | ≤ 0.25
QKAA | ≤ 0.25
WRQW | ≤ 0.25
EAKY | ≤ 0.25

Variant | enrichment ratio
IFMN | ≤ 0.25
RSEH | ≤ 0.25
GTFN | ≤ 0.25
IDTN | ≤ 0.25
YKDC | ≤ 0.25
IMQS | ≤ 0.25
ISPF | ≤ 0.25
DNCG | ≤ 0.25
YIIP | ≤ 0.25
FCVF | ≤ 0.25
PIII | ≤ 0.25
RGCI | ≤ 0.25
VIEW | ≤ 0.25
FPWQ | ≤ 0.25
FMVS | ≤ 0.25
VDLL | ≤ 0.25
CFSI | ≤ 0.25
GVLS | 2.28
ESSW | ≤ 0.25
LENT | ≤ 0.25
MSKW | ≤ 0.25
SKED | ≤ 0.25
KCDD | ≤ 0.25
YAKC | ≤ 0.25
QMIR | ≤ 0.25
RVHE | ≤ 0.25

Variant | enrichment ratio
ENIR | ≤ 0.25
YDDY | ≤ 0.25
LSRI | ≤ 0.25
MTTF | 11
TQYQ | 27.1
RMMR | ≤ 0.25
DCYY | ≤ 0.25
NDQI | 1.1
STEL | ≤ 0.25
SMKW | ≤ 0.25
MVHI | ≤ 0.25
GKST | ≤ 0.25
GLFT | ≤ 0.25
FCWA | ≤ 0.25
ITLW | ≤ 0.25
WNGI | ≤ 0.25
IYYH | ≤ 0.25
WDFQ | ≤ 0.25
IFWR | ≤ 0.25
RYQK | ≤ 0.25
YWMT | ≤ 0.25
WQLY | ≤ 0.25
LKVK | ≤ 0.25
TKRW | ≤ 0.25
LYRY | ≤ 0.25
KPQY | ≤ 0.25

Variant | enrichment ratio
WQWC | ≤ 0.25
YTWY | ≤ 0.25
EARQ | ≤ 0.25
FILM | 9.92
FNNI | ≤ 0.25
KEME | ≤ 0.25
KKDV | ≤ 0.25
QDPL | ≤ 0.25
YCIW | ≤ 0.25
PVPQ | ≤ 0.25
PYNL | ≤ 0.25
MLMY | ≤ 0.25
GISA | 13
RRYD | ≤ 0.25
WPAS | ≤ 0.25
RESY | ≤ 0.25
YQHC | ≤ 0.25
NCWS | ≤ 0.25
MFTC | ≤ 0.25
ERWF | ≤ 0.25
VDRK | ≤ 0.25
CFFF | ≤ 0.25
YPVE | ≤ 0.25
